{"source": "paper PMC4336329", "about": "(PLoS ONE, 2015)", "note": "Out of some 310,000 compounds screened, about 14,000 (4.5%) showed an effect of 50% or more. The effect is printed as a negative number. The list shows a part of the results."}
{"biological_target": "human ether-à-go-go-related gene (hERG) potassium channel (human, UniProt Q12809)", "sequence (Q12809 whole entry, looked up)": "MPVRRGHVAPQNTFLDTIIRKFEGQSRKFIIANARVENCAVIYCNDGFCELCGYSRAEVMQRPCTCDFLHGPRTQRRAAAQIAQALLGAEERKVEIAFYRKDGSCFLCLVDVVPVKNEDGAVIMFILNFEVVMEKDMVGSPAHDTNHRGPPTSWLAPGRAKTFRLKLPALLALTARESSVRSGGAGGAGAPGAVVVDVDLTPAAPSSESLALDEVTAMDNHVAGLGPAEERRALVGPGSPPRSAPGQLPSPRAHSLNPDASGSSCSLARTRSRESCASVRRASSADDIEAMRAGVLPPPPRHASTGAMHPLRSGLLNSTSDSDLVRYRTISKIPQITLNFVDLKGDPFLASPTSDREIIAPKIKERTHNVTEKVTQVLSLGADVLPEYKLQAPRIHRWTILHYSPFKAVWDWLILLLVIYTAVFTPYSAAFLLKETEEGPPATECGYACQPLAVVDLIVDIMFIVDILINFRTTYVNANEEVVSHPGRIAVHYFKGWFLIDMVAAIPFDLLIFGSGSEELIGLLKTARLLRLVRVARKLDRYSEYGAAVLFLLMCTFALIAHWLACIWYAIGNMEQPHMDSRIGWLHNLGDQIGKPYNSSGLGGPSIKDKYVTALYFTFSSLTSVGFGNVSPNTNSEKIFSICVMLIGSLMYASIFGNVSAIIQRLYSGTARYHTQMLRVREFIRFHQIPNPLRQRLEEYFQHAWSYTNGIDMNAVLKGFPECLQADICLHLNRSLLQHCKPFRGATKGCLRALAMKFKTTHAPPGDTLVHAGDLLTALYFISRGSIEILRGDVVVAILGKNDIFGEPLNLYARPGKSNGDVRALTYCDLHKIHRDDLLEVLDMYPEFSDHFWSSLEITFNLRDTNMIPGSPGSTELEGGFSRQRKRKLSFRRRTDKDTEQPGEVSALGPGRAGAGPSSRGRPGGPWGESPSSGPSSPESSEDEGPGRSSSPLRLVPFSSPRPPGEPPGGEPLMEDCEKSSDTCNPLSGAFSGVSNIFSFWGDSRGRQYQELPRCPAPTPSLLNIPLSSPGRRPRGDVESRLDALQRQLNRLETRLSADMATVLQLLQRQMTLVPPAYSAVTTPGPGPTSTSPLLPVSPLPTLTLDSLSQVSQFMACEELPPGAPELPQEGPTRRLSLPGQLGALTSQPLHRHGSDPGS", "assay": "primary screen, population patch clamp on CHO cells stably expressing hERG", "units": {"hERG current change (%, negative = inhibition) at 10uM": "%"}}
{"compound": "CCC(C)NC(=O)CCSc1ccc(C)cc1", "note": "(centres unmarked);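 further: peak tail current of the secondary pulse compared with the same well before compound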", "hERG current change (%, negative = inhibition) at 10uM": 3.4}
{"compound": "CC[C@@](C)(NS(=O)(=O)OCC(Cl)(Cl)Cl)c1ccccc1", "hERG current change (%, negative = inhibition) at 10uM": -21.2}
{"compound": "CCNC(=O)C1OC(n2cnc3c(N)ncnc32)C(O)C1O", "note": "(centres unmarked)", "hERG current change (%, negative = inhibition) at 10uM": 2.93}
{"compound": "CCOC(=O)c1sc(SCC(=O)Nc2ccc(N(C)C)cc2)nc1N", "hERG current change (%, negative = inhibition) at 10uM": -13}
{"compound": "O=C(Nc1cccnc1Cl)c1ccc(=O)oc1", "hERG current change (%, negative = inhibition) at 10uM": 7.47}
{"compound": "Cc1ccccc1NC(=O)c1cn2c(nc3ccccc32)c(C#N)c1C", "hERG current change (%, negative = inhibition) at 10uM": 2.11}
{"compound": "CC(=O)Nc1cccc(NC(=O)CSc2nc(=O)n(CCCN3CCOCC3)c3c2CCC3)c1", "hERG current change (%, negative = inhibition) at 10uM": 0.499}
{"compound": "Nc1ccc(-n2cnc3cc([N+](=O)[O-])ccc32)cc1", "hERG current change (%, negative = inhibition) at 10uM": 1.35}
{"compound": "COc1cc(C2C(C(C)=O)=C(O)C(=O)N2CCN(C)C)ccc1O", "note": "(centres unmarked)", "hERG current change (%, negative = inhibition) at 10uM": 8.39}
{"compound": "Cc1c(C(=O)N(C)c2ccccc2)oc2c1C(O)CC(C)(C)C2", "note": "(centres unmarked)", "hERG current change (%, negative = inhibition) at 10uM": 11.3}
{"compound": "COc1ccc(NC(=O)CCC(=O)N2CCOCC2)c([N+](=O)[O-])c1", "hERG current change (%, negative = inhibition) at 10uM": -4.86}
{"compound": "COc1ccc(Nc2cc3n(c(=O)n2)CCc2cc(OC)c(OC)cc2-3)cc1", "hERG current change (%, negative = inhibition) at 10uM": 4.8}
{"compound": "CCCn1cnc2c(sc3nc4c(cc32)CSC(C)(C)C4)c1=O", "hERG current change (%, negative = inhibition) at 10uM": -2.61}
{"compound": "CS(=O)(=O)c1ccc(-c2cccc(NC(=O)c3ccc(Br)o3)c2)nn1", "hERG current change (%, negative = inhibition) at 10uM": 3.74}
{"compound": "COC(=O)C1=C(C)N(C)C(=O)NC1c1ccc(O)c(OC)c1", "note": "(centres unmarked)", "hERG current change (%, negative = inhibition) at 10uM": 3.84}
{"compound": "CCCCN1C(=O)NC(=O)/C(=C/c2cnc(SC)nc2)C1=O", "hERG current change (%, negative = inhibition) at 10uM": 5.29}
{"compound": "O=C(NCc1cccnc1)c1cc([N+](=O)[O-])ccc1N1CCOCC1", "hERG current change (%, negative = inhibition) at 10uM": -37.6}
{"compound": "COc1ccc(NS(=O)(=O)c2cc(C(=O)O)ccc2C)cc1", "hERG current change (%, negative = inhibition) at 10uM": 3.19}
{"compound": "Cc1ccc(C2=NN=C(NC(=O)CSc3nncn3C)SC2)cc1", "hERG current change (%, negative = inhibition) at 10uM": 3.58}
{"compound": "CCCCCOc1ccc(/C=N/NC(=O)c2nnn(-c3nonc3N)c2CN2CCCCCC2)cc1", "hERG current change (%, negative = inhibition) at 10uM": 11.1}
{"compound": "CN(C(=S)Nc1ccc(SC(F)F)cc1)C(c1ccccc1)c1ccccc1", "hERG current change (%, negative = inhibition) at 10uM": -0.128}
{"compound": "COc1cccc(NC(=O)COc2ccccc2)c1", "hERG current change (%, negative = inhibition) at 10uM": 7.8}
{"compound": "Cc1cc(C)c(NC(=O)CS(=O)CC(=O)NCCN2CCCCCC2)c(C)c1", "note": "(centres unmarked)", "hERG current change (%, negative = inhibition) at 10uM": 23.7}
{"compound": "Cc1[nH]nc(Nc2ccccc2)c1[N+](=O)[O-]", "hERG current change (%, negative = inhibition) at 10uM": -3.89}
{"compound": "Cc1ccc(Cn2ncc3c(NN)ncnc32)cc1", "hERG current change (%, negative = inhibition) at 10uM": 10.3}
{"compound": "CNC(=O)c1c(C)noc1C", "hERG current change (%, negative = inhibition) at 10uM": 24.8}
{"compound": "N#CCSc1nc(-c2ccccc2)nc2ccccc12", "hERG current change (%, negative = inhibition) at 10uM": 7.83}
{"compound": "Cc1cc(C(=O)OCC(=O)NC2CCS(=O)(=O)C2)c(C)n1-c1ccccc1", "note": "(centres unmarked)", "hERG current change (%, negative = inhibition) at 10uM": -6.8}
{"compound": "COc1ccc(NC(=O)Nc2cccc(C)n2)cc1", "hERG current change (%, negative = inhibition) at 10uM": 4.5}
{"compound": "CCN(CC)S(=O)(=O)c1ccc(S(=O)(=O)NCC2CCCO2)cc1", "note": "(centres unmarked)", "hERG current change (%, negative = inhibition) at 10uM": 3.86}
{"compound": "COc1ccc(-c2nnc(SCC(=O)Nc3ccc(Cl)cc3)n2C)cc1", "hERG current change (%, negative = inhibition) at 10uM": 22.1}
{"compound": "CCCC(C(=O)N1CCOCC1)N1C(=O)C2C3C=CC(C3)C2C1=O", "note": "(centres unmarked)", "hERG current change (%, negative = inhibition) at 10uM": 15.1}
{"compound": "COc1ccccc1C(=O)Nc1ccc(OCC(=O)N2CCCCC2)cc1", "hERG current change (%, negative = inhibition) at 10uM": -2.87}
{"compound": "COc1ccccc1NC(=O)O/N=C(\\N)c1ccccc1", "hERG current change (%, negative = inhibition) at 10uM": -16.5}
{"compound": "COc1cc(NC(=O)c2cccc(NC3=NC4CS(=O)(=O)CC4S3)c2)cc(OC)c1OC", "note": "(centres unmarked)", "hERG current change (%, negative = inhibition) at 10uM": 13.5}
{"compound": "CCCc1ccc(OCc2ccc(C(=O)N3CCCC3)o2)cc1", "hERG current change (%, negative = inhibition) at 10uM": -40.7}
{"compound": "CCOc1ccc(CCNC(=O)c2nnc(CS(=O)(=O)c3ccccc3)o2)cc1OCC", "hERG current change (%, negative = inhibition) at 10uM": 3.23}
{"compound": "O=C(NCCCN1CCOCC1)Nc1ccc(Cc2ccc(NC(=O)NCCCN3CCOCC3)cc2)cc1", "hERG current change (%, negative = inhibition) at 10uM": 1.19}
{"compound": "CCc1nc(SCC(=O)c2ccccc2)c2c(=O)n(C)c(=O)n(C)c2n1", "hERG current change (%, negative = inhibition) at 10uM": -3.2}
{"compound": "COc1ccc(OC)c(S(=O)(=O)NNC(=S)Nc2ccc3c(c2)OCO3)c1", "hERG current change (%, negative = inhibition) at 10uM": 12.7}
{"compound": "CCn1cc2nc(SCC(=O)Nc3ccc(OC)c(OC)c3)n(Cc3ccc(OC)cc3)c(=O)c2n1", "hERG current change (%, negative = inhibition) at 10uM": 2.9}
{"compound": "CC(=O)NC(Cc1c[nH]c2ccccc12)C(=O)OCC(=O)Nc1cc(C)on1", "note": "(centres unmarked)", "hERG current change (%, negative = inhibition) at 10uM": 4.52}
{"compound": "CC(C)C(=O)NC(Nc1ccc(S(N)(=O)=O)cc1)C(Cl)(Cl)Cl", "note": "(centres unmarked)", "hERG current change (%, negative = inhibition) at 10uM": -1.51}
{"compound": "Br.CC(=O)c1sc(Nc2ccc(C)cc2)nc1C", "hERG current change (%, negative = inhibition) at 10uM": 3.98}
{"compound": "CCNC(=S)N(Cc1cc2cc(C)ccc2[nH]c1=O)C1CCCC1", "hERG current change (%, negative = inhibition) at 10uM": -8.06}
{"compound": "COc1cc(O)oc1C=Nc1ccc(C(F)(F)F)cc1", "hERG current change (%, negative = inhibition) at 10uM": -24.4}
{"compound": "CC(=O)Nc1ccc(S(=O)(=O)NNc2ccc([N+](=O)[O-])cc2)cc1", "hERG current change (%, negative = inhibition) at 10uM": 5.42}
{"compound": "C/C=C(\\C)C(=O)N[C@@H](c1ccccc1)[C@@H](O)C(=O)O[C@H]1C[C@@]2(O)[C@@H](OC(=O)c3ccccc3)C3[C@](C)(C(=O)[C@H](O)C(=C1C)C2(C)C)[C@@H](O)C[C@H]1OC[C@@]31OC(C)=O", "note": "(some centres unmarked)", "hERG current change (%, negative = inhibition) at 10uM": 6.13}
{"compound": "CCOC(=O)COc1ccccc1/C=N/Nc1nnc2c3ccccc3n(C)c2n1", "hERG current change (%, negative = inhibition) at 10uM": 10.4}
{"compound": "Cc1cc(NC(=O)NC2CCCN2S(=O)(=O)c2ccc(Cl)cc2)no1", "note": "(centres unmarked)", "hERG current change (%, negative = inhibition) at 10uM": -22.8}
{"compound": "CNC(=O)C(=O)NCC1OCCN1S(=O)(=O)c1ccc([N+](=O)[O-])cc1", "note": "(centres unmarked)", "hERG current change (%, negative = inhibition) at 10uM": -17.8}
{"compound": "COc1cccc(C2c3c(C)nn(-c4ccc([N+](=O)[O-])cc4)c3N=C3C(=O)Nc4ccccc4N32)c1", "note": "(centres unmarked)", "hERG current change (%, negative = inhibition) at 10uM": 6.88}
{"compound": "Cc1ccccc1-c1cc(C(=O)Nc2sc(C)c(C)c2C(N)=O)c2ccccc2n1", "hERG current change (%, negative = inhibition) at 10uM": 17}
{"compound": "COc1ccc(OC)c(CNC(=O)CCc2nc(-c3cccs3)no2)c1", "hERG current change (%, negative = inhibition) at 10uM": -1.05}
{"compound": "CN(C)C1=NCCN1CCC1CCCC1", "hERG current change (%, negative = inhibition) at 10uM": 1.87}
{"compound": "CC(=O)/C=C(/C)NC(Cc1c[nH]c2ccccc12)C(=O)O", "note": "(centres unmarked) [3713680]", "hERG current change (%, negative = inhibition) at 10uM": -2.95}
